Some of the results follow.
T1: UNK ZnF1-3 (human, UniProt Q9C0B0 31-174)
T1 sequence: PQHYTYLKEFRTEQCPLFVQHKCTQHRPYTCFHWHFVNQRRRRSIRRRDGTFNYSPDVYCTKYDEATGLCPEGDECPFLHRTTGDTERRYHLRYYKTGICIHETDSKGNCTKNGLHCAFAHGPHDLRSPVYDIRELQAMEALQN

B1: chr7:149068622:149068623:-_ENSMUSG00000025139_ENSMUST00000001950|mus_hu|mus_mus_mus_hu_False|58_58 (ssRNA)
RNA: GGGAGUUCUACAGUCCGACGAUCGUGAGGCCUCUGAGUGUGGCUUGUGGUCUGUCCUGGGUUAGAGUUGUUAAUAUCACUAAGUGGACCAUCUAGAACGUUCCAGUCCCGCCUGACACCUUCAUUCCCAAUGGAGAAGAAAUCCAACAGAGGAUUGAGCAUCA
B2: chr8:74858975:74858976:-_ENSG00000154582_ENST00000284811|hu_mus|hu_hu_hu_mus_True|8_18 (ssRNA)
RNA: GGGAGUUCUACAGUCCGACGAUCGACCUUGUAGGUAAAAUACAUGCACACUUUUGAUAGCACAUGUGAGGGGAUCUCUCUAAAAUUGACCUCGUUGGUUUCAUUCUCAGCAAACUGACCUGGGCCACUCAACAUGGCCUUUAUCAACAGAGGAUUGAGCAUCA
B3: chr9:82769708:82769709:-_ENSMUSG00000032253_ENSMUST00000034787|mus_hu|FALSE|FALSE (ssRNA)
RNA: GGGAGUUCUACAGUCCGACGAUCAAAAGUCUUUGCAGCUGAAGAAGUAGAUGGUUGCUCAGUGACAACUGGAUCUACAACCACUCGGUUGCUUCUGGUUCGAACCACAGAACUAGAUUCUGUUUUACCGUUUAUCUGAGCAGCCAACAGAGGAUUGAGCAUCA
B4: chr5:68473423:68473424:+_ENSG00000134057_ENST00000507798|hu_hu|FALSE|FALSE (ssRNA)
RNA: GGGAGUUCUACAGUCCGACGAUCCUCCAACUCAAGUUUACAAGUUACACCUUUGCCACAGCCUUGGCUAAAUCUUGAACUAGUGCAGAAUUCAGCUGUGGUAGAGUGCUGAUCUUAGCAUGCUUCGAUGUGGCAUACUUGUUCCAACAGAGGAUUGAGCAUCA
B5: chr8:141525804:141525805:+_ENSG00000104472_ENST00000220913|hu_hu|motif|central (ssRNA)
RNA: GGGAGUUCUACAGUCCGACGAUCGUAGAAAAAUAUCUGAACAGUCAACUUUUCUUAAGACAAAAAUUCAAAUGUAACAUACGGCCGGAACUAUAAAUUUAGCUAAAACUGAAUCGAGCUGUUUAUAAGAACUGAUUCCAAAAUCAACAGAGGAUUGAGCAUCA
B6: chr16:94651144:94651145:+_ENSMUSG00000040785_ENSMUST00000117648|mus_hu|mus_mus_mus_hu_True|8_58 (ssRNA)
RNA: GGGAGUUCUACAGUCCGACGAUCAUUUUCUUGAAUCAAGUGGCGAAUAACAUAGUCCACUGCUUCAUUUAGAAAAUUUUUGCUAGAAAAACAGGUUGUAUAGUCUUCUGUGCUCAAAACUUUCCAAGAGAGCAGCUCUUUGAGCAACAGAGGAUUGAGCAUCA
B7: chr11:93905761:93905762:+_ENSMUSG00000020859_ENSMUST00000103168|mus_hu|motif|central (ssRNA)
RNA: GGGAGUUCUACAGUCCGACGAUCAGCUGGCACACCGGUAGAAAUAGAAAAGUGCACAAGCAGCAAAACAGAGAGAGAUACGGAGAUAGCAGAAUUAAUGACCACCGCCCCGCCAACAAAGCCAAACACAAACAGCAGCAUGCACAACAGAGGAUUGAGCAUCA
B8: chr3:10015032:10015033:+_ENSMUSG00000027533_ENSMUST00000029046|mus_mus|mus_mus_mus_hu_True|98_108 (ssRNA)
RNA: GGGAGUUCUACAGUCCGACGAUCGUUGUUGCCAUCACACGUAAUGAUACAAUCUGGCUUGGCCAUUGCGCCCAUUUUUCGCAAAGCUAUUCCCACUCCUAGCUCCUUCAUGUAUUCAUCAAAGCCUUUGCUGUCCACCAGGCGCAACAGAGGAUUGAGCAUCA
B9: chr8:98253062:98253063:-_ENSMUSG00000036550_ENSMUST00000098473|mus_mus|FALSE|FALSE (ssRNA)
RNA: GGGAGUUCUACAGUCCGACGAUCGGUUUCCAACACAUGCUCGGGUGCAUUGAGCUCCAACAGCAGCAUGAUAAAAAUCCUAUGGUACGGAAGUUGCUGAAAUUCACUCUGCCGAACAUCAUGAUCCUGUAGGAGAACUCCCACCAACAGAGGAUUGAGCAUCA
B10: chr11:113085134:113085135:+_ENSG00000149294_ENST00000316851|hu_hu|motif|central (ssRNA)
RNA: GGGAGUUCUACAGUCCGACGAUCGGUGAUGGAGGGAAUGGGGUCUCCGGAGGCUUCACAGGUAAGAGUGACCUGCUCCUCGGAUUCCAUGGCAGUCUGGUUCUCUACAUAUGUGAUUUUGGGUUUUGCAAAGACUUUGAGGUGCAACAGAGGAUUGAGCAUCA
B11: chr1:58468927:58468928:-_ENSMUSG00000026034_ENSMUST00000148330|mus_mus|mus_mus_mus_hu_False|48_68 (ssRNA)
RNA: GGGAGUUCUACAGUCCGACGAUCAAUUACUGAAAAAGAUGUUCAUUACCUUAGCUAUGUACUUAAUUUAAUAAAGCACCCAAACAACAUAAAAUGUGCAAUAUAAAAAUGUUAAGAAUUUACAAAGCUGUACAAAAUAACUUACAACAGAGGAUUGAGCAUCA
B12: chr2:168010559:168010560:-_ENSMUSG00000051149_ENSMUST00000088001|perfect_dup|FALSE|FALSE (ssRNA)
RNA: GGGAGUUCUACAGUCCGACGAUCUUCCAAAGUCUUUUUAUCUGCAUUGAAGGUACAGUAAGGGCAGUUAAGGAGAAUCCUAUUUUCAAAGUCUUCACUAUGGACAUUCCGGAAAUGACUUUUGUAGGCAGAGAAGAAUUUUGACAACAGAGGAUUGAGCAUCA
B13: 52290995_52293528_1129_CDS_ENSG00000078618_ENST00000352171|human|control|control (ssRNA)
RNA: GGGAGUUCUACAGUCCGACGAUCAAGGCUUCCAAACAACAUUUCCUUUCUGUUUGCAUCAGAAGGCCUUGCAAGUUGAUAUUCACUAUCAACAGCUUCAACUUCACGGUCAAUUGCAUCUCUGAUCAUUAGUGGGUGGAUGAACAACAGAGGAUUGAGCAUCA
B14: chr16:44739181:44739182:-_ENSMUSG00000022668_ENSMUST00000162512|mus_mus|FALSE|FALSE (ssRNA)
RNA: GGGAGUUCUACAGUCCGACGAUCUCUCACUUCAUGCACUUGUAUAUGCUCUGGACUUGUCAGUUAAAAUAGAAAAGCCAGCUAGCAUCUGUCCUAAUGACCAAUAUGAUUUAAUUCAUUAUUUGUAACCCUUACCCCCAGCGCCAACAGAGGAUUGAGCAUCA
B15: chrX:147082666:147082667:-_ENSMUSG00000025272_ENSMUST00000087258|mus_hu|FALSE|FALSE (ssRNA)
RNA: GGGAGUUCUACAGUCCGACGAUCGGAAGAGCCACCAAAGGAGACACUGGUGCUAAGUGUGCCUCCAAAGCCAGUGCUGGUGCAGGGAGAGCCACCGAAGCAGAUACUGGUACUGAGUGUACCACCAAAGCUACCACUGGAGCUCAACAGAGGAUUGAGCAUCA
B16: chr2:10942682:10942683:-_ENSG00000143870_ENST00000272227|hu_mus|FALSE|FALSE (ssRNA)
RNA: GGGAGUUCUACAGUCCGACGAUCUGGUGUUAACCUCUGGCAGUGACCACACCAUGGUGCAUAAAAUUCUACAAGCCACAGGCCGUCACUCUGAAUAACUUCUCUGUUGAAAUUUGAUGGCGUCAACUCGAUGACAUCAUCACUCAACAGAGGAUUGAGCAUCA
B17: 45735942_45738520_1019_CDS_ENSG00000108424_ENST00000290158|human|control|control (ssRNA)
RNA: GGGAGUUCUACAGUCCGACGAUCUUCACAGACCACCUGCAUAAUAAAGUGCCUUUCAGACUCUUUAUCAAAGUUUGCUUUGGUGAACUCCAAUGAGUUCAGGAGUGCAUUCGUAGCAGCUAGCUUCACAUUAUUACUAGGCUCCAACAGAGGAUUGAGCAUCA
B18: chrX:69798090:69798091:-_ENSMUSG00000031343_ENSMUST00000055966|mus_mus|mus_mus_mus_hu_False|38_38 (ssRNA)
RNA: GGGAGUUCUACAGUCCGACGAUCAAGUCCCCGGGUUCUUGUCGUCUUGAUUCCCCUUGACCAGUGGUUCCAGGGAGAAUAUUAAUCAGGAAAAGAAGUACAACUCUGGUCAUGUAACAGUGACUUGUUUGUGUGAUUAUCAUCCAACAGAGGAUUGAGCAUCA
B19: chr7:75956504:75956505:-_ENSG00000170027_ENST00000307630|hu_hu|motif|central (ssRNA)
RNA: GGGAGUUCUACAGUCCGACGAUCAUAUAACUGCAUGUCACUAUAGCAACAUCCAAAACAGAUCAAUUUGUUACAAUCACGGUUUGGUAGAGCAAACUUUACCCCCAAAAGGAAAAAUUAAAUUAAAAAAAAAAAACCUUUAAACAACAGAGGAUUGAGCAUCA
B20: chr14:76904430:76904431:+_ENSMUSG00000022010_ENSMUST00000022587|mus_mus|mus_mus_mus_hu_True|18_88 (ssRNA)
RNA: GGGAGUUCUACAGUCCGACGAUCUGCAGCCAAAAACACCCUCGUGGCGGGAGGGAGGGAACACCAGCAGCCUUGUAUAAGCUAGAUAAAAUCUUCUGGCUUUCCGCAGCCCAGGGAGUGAGAACGGACGGCAGCCCUAAUUUACAACAGAGGAUUGAGCAUCA
B21: chr2:42509997:42509998:+_ENSG00000143924_ENST00000318522|hu_mus|hu_hu_hu_mus_True|88_88 (ssRNA)
RNA: GGGAGUUCUACAGUCCGACGAUCUCGCUGAGUCCUCUCCUCAUAAUUAAAUAGUACUACCACUGAGGCGAUAAAAUAAACUAUCUCCCCUGUGGGAAGCAGGUAUACAUUCGCUCUACAGUCCUUUCCUCGAUAACCGUAUACCAACAGAGGAUUGAGCAUCA
B22: 91712627_91712747_8597_CDS_ENSG00000127914_ENST00000356239|human|control|control (ssRNA)
RNA: GGGAGUUCUACAGUCCGACGAUCUAAAUUAAUUUGUAUUCCUGCAUUUUUAACAAGAAUUUGUGGAGUCUGAUUGCUGCUACUGAUCUUCAGAGUCCCAUCUGUCUGGGAUGCAAUGCUCUUACUCAGUUUUAUAGGAAGUGGCAACAGAGGAUUGAGCAUCA

Biological target: T1, UNK ZnF1-3
Assay: nsRBNS (natural sequence RNA bind-n-seq); RBNS binding buffer (assumed for nsRBNS): 25 mM Tris pH 7.5, 150 mM KCl, 3 mM MgCl2, 0.01% Triton X-100, 500 ug/ml BSA, 20 U/ml SUPERase-In, 4 C; UNK is unkempt and MSI1 is Musashi-1; names of the RNAs are library labels; protein concentration not given here; high values mean tight binding

Row | Binder | binding signal [enrichment R]
1 | B1 | 0.826
2 | B2 | 0.566
3 | B3 | 0.582
4 | B4 | 0.36
5 | B5 | 1.11
6 | B6 | 0.69
7 | B7 | 2.55
8 | B8 | 0.784
9 | B9 | 1.04
10 | B10 | 0.814
11 | B11 | 1.74
12 | B12 | 1.15
13 | B13 | 1.24
14 | B14 | 2.09
15 | B15 | 1.37
16 | B16 | 0.629
17 | B17 | 0.609
18 | B18 | 0.71
19 | B19 | 3.1
20 | B20 | 1.79
21 | B21 | 1.73
22 | B22 | 0.938

Source: paper PMC12136788
